# Experimental data: paper PMC5892938
# The list shows a part of the results. At the low end of the ranking the order means little.
# Target: GST-SBP-SLBP (stem-loop binding protein) (UniProt Q14493)
# Assay: targeted RNA Bind-n-Seq;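 also: DESeq read counts versus GST-SBP nonspecific binding control pulldown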
# Details: RBNS binding buffer: 25 mM Tris pH 7.5, 150 mM KCl, 3 mM MgCl2, 0.1% Tween, 0.5 mg/mL BSA, 1 mM DTT; 27 nM protein, 750 pM RNA pool; temperature not stated; high values mean tight binding
row,Sequence,binding signal (log2 fold change)
1,GGUCACGUCUCAAUCAACUCUAUCCCCAGGGAAACCCCUGGUAUACUCAACAGCUCGCAGUCAAG,-0.0603
2,GGUCACGUCUCAAUCAACUCAAUUUCAGGAGUUUUCUCCUGCUAACUCAACAGCUCGCAGUCAAG,0.0694
3,GGUCACGUCUCAAUCAACUCUAUUCCAGGAGUUUACUCCUGUUAUCUCAACAGCUCGCAGUCAAG,0.294
4,GGUCACGUCUCAAUCAACUCUAACGAGGGGGGGAAAACCCCUUUACCCUCACUCUCAACAGCUCGCAGUCAAG,-0.423
5,GGUCACGUCUCAAUCAACUCUACUCCCAGGGAAACCCCUGGUAAACUCAACAGCUCGCAGUCAAG,0.0851
6,GGUCACGUCUCAAUCAACUCAAGUCCAGGAGUUUUCUCCUGCUAUCUCAACAGCUCGCAGUCAAG,0.0372
7,GGUCACGUCUCAAUCAACUCAUCGCCAGGAGUUUCCUCCUGUUUUCUCAACAGCUCGCAGUCAAG,-0.152
8,GGUCACGUCUCAAUCAACUCAUCCUCCAGGGAAACCCCUGGCUAAUUCAACAGCUCGCAGUCAAG,-0.578
9,GGUCACGUCUCAAUCAACUCCUAAGAGGGGGGGAAAACCCCUUUACCCUCACACUCAACAGCUCGCAGUCAAG,-0.0501
10,GGUCACGUCUCAAUCAACUCAAUCCCAGGAGUUUACUCCUGCAUAGUCAACAGCUCGCAGUCAAG,0.0613
11,GGUCACGUCUCAAUCAACUCAUCGUCCAGGGAAACCCCUGGUUUUCUCAACAGCUCGCAGUCAAG,-0.239
12,GGUCACGUCUCAAUCAACUCAUUUCCAGGAGUUUUCUCCUGCUAUCUCAACAGCUCGCAGUCAAG,0.0583
13,GGUCACGUCUCAAUCAACUCAGUCUCAGGAGUUUUCUCCUGCUUAUUCAACAGCUCGCAGUCAAG,0.00172
14,GGUCACGUCUCAAUCAACUCAUCCUCCAGGGAAACCCCUGGUAAACUCAACAGCUCGCAGUCAAG,0.127
15,GGUCACGUCUCAAUCAACUCUAUCUCCAGGGAAAUCCCUGGUUAACUCAACAGCUCGCAGUCAAG,-0.0179
16,GGUCACGUCUCAAUCAACUCUUCUUCCAGGGAAACCCCUGGCAUACUCAACAGCUCGCAGUCAAG,0.0197
17,GGUCACGUCUCAAUCAACUCUAUCCCCAGGGAAAUCCCUGGCAUACUCAACAGCUCGCAGUCAAG,-0.137
18,GGUCACGUCUCAAUCAACUCACAUGAGGGGGGGAAAACCCCUUUACCCUCUUAAUCAACAGCUCGCAGUCAAG,-0.0349
19,GGUCACGUCUCAAUCAACUCAUCUCCAGGAGUUUACUCCUGUAAAUUCAACAGCUCGCAGUCAAG,0.242
20,GGUCACGUCUCAAUCAACUCAAACGAGGGGGGGAAAACCCCUUUACCCUCUAUUUCAACAGCUCGCAGUCAAG,0.113
21,GGUCACGUCUCAAUCAACUCUUUUUCAGGAGUUUUCUCCUGCAUAUUCAACAGCUCGCAGUCAAG,0.0174
